Results taken from patent CN117999282A (GAMMADELTA THERAPEUTICS LTD, dated 2024).

Molecular target: T1, recombinant human TIGIT (human, UniProt Q495A1 22-141)
T1 construct: also called 重组TIGIT; 人TIGIT
T1 sequence (looked up): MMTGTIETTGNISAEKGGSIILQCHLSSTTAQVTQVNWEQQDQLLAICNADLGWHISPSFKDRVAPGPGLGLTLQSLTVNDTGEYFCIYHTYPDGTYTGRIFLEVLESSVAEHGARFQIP
Test: SPR, TIGIT fixed on carboxymethyl dextran chip, bispecific 100nM, then Vδ1 heterodimer 100nM

B1: 抗Vδ1×TIGIT双特异性抗体 (ADT1-4-2×替瑞利尤单抗) (bispecific antibody, human IgG1, kappa)
chain 1: DIVMTQSPDSLAVSLGERATINCKSSQTVLYSSNNKKYLAWYQQKPGQPPNLLIYWASTRESGVPDRFSGSGSGTDFTLTISSLQAEDVAVYYCQQYYSTPFTFGPGTKVEIKRTVAAPSVFIFPPSDEQLKSGTASVVCLLNNFYPREAKVQWKVDNALQSGNSQESVTEQDSKDSTYSLSSTLTLSKADYEKHKVYACEVTHQGLSSPVTKSFNRGEC
chain 2: EVQLQQSGPGLVKPSQTLSLTCAISGDSVSSNSAAWNWIRQSPSRGLEWLGKTYYRFKWYSDYAVSVKGRITINPDTSKNQFSLQLNSVTPEDTAVFYCTRESTTYDLLAGPFDYWGQGTLVTVSSASTKGPSVFPLAPSSKSTSGGTAALGCLVKDYFPEPVTVSWNSGALTSGVHTFPAVLQSSGLYSLSSVVTVPSSSLGTQTYICNVNHKPSNTKVDKKV[letters of human IgG1 Fc with L235A G237A (EU numbers) left out]GGGGGSGGGGSGGGGSEVQLQQSGPGLVKPSQTLSLTCAISGDSVSSKSAAWNWIRQSPSRGLEWLGRTYYRSKWSTDYAASVKSRITINPDTSKNQLSLQLNSVTPEDTAVYYCARTWVGYVDRWGQGTLVTVSSGGGGSGGGGSGGGGSDIQMTQSPPALSASVGDRVTITCRASQDINDWLAWYQHKPGKAPKLLIYDASSLESGVPLRFSGSGSGTEFTLTISSLQPDDFATYYCQQKYSAPQVTFGQGTRLEIK
notes: also called 抗Vδ1×抗TIGIT
binding result: binds
